# Laboratory results reported in PubChem BioAssay AID463173 (ICCB-Longwood Screening Facility, Harvard Medical School, 2010).
# About 4,300 (8.3%) of roughly 52,000 compounds were called active. No stated cut-off is given here; in the data, active means survival mostly below about 52% (no sharp cut-off); inactive means mostly above about 56%. Some of the results follow.
# Test system: DeltatarO mutant
# Assay: growth inhibition of S. aureus wild type versus tarO mutant, primary screen, teichoic acid synthesis inhibitors, RN4220, OD600 (AID 463173)
# Settings: OD600, 18 h, active compounds read low, screened at 18.75 µg/mL (by protocol)
row,SMILES,survival
1,CN(c1ccccc1)C(c1ccc(F)cc1)c1nnnn1C1CCCC1 (configuration not stated),inactive: 79%
2,CCCCOc1ccc(C(=O)NCCc2sc(-c3ccc(OC)c(OC)c3)nc2C)cc1,inactive: 72%
3,CCOc1ccc(CNC(=O)c2ccc3c(c2)N(CC)CCS3)cc1,inactive: 74%
4,O=C(Nc1cccc(O)c1)c1cc2nc(-c3ccc(Br)cc3)cc(C(F)(F)F)n2n1,inactive: 120%
5,CC1(C)NCCNC1=O,inactive: 83%
6,COc1ccc(N2CCN(C(=O)CSc3c4c(nc5ccc(Cl)cc35)CCCC4)CC2)cc1,active: 35%
7,CCOc1ccccc1NC(=O)C1CCN(S(=O)(=O)c2cc(Br)cc3c2N(C(C)=O)CC3)CC1,inactive: 69%
8,COc1cccc(CN2CCCN(CC(=O)Nc3ccc4c(c3)OCCO4)S2(=O)=O)c1,inactive: 74%
9,COc1cccc(N(Cc2nnc3n2CCCCC3)C(=O)Nc2ccccc2)c1,inactive: 126%
10,CCNC(=S)N(Cc1ccccc1)Cc1nc2ccccc2c(=O)[nH]1,inactive: 45%
11,Cc1nc2nc(NC(=O)c3ccc(C(C)(C)C)cc3)[nH]n2c(=O)c1Cl,inactive: 98%
12,CCC(CC)C(=O)Nc1ccc2nc(SCc3ccccc3)sc2c1,inactive: 81%
13,COc1ccc2c(CC(=O)Nc3ccc(C)cc3)coc2c1,inactive: 73%
14,CC1CCCN(c2ccc(C(=O)NCCc3ccccc3)cn2)C1 (configuration not stated),inactive: 84%
15,Cc1cccc(Nc2ncc(NC(=O)c3cccc(F)c3)c(Nc3cccc(C)c3)n2)c1,inactive: 72%
16,COc1cccc(CCNC(=O)c2cnc3sc(N4CCCCCC4)nn3c2=O)c1,inactive: 84%
17,Cc1ccc(-n2nc3c(=O)n(CC(=O)NC(C)C)nc(C)c3c2C)cc1,inactive: 70%
18,COc1ccc(S(=O)(=O)c2c(Nc3c(C)cccc3C)sc(C(=O)c3ccc4c(c3)OCO4)c2N)cc1,inactive: 80%
19,COc1cc(NC(=O)CC2C(=O)N(c3cccc(C)c3)C(=O)N2Cc2ccco2)cc(OC)c1 (configuration not stated),inactive: 101%

row,SMILES,survival
1,CCOc1cc(CNC(=O)c2ccccc2NC(=O)c2nsc3ccccc23)ccc1OC,inactive: 82%
2,CCOc1ccc(NC(=O)Cn2cc(C(=O)c3cccs3)c3ccccc32)cc1,inactive: 51%
3,CC(OC(=O)c1cc2sccc2n1C)C(=O)NCC1CCCO1 (configuration not stated),inactive: 99%
4,CCOc1cccc(CC(=O)NCc2ccc3c(c2)CCN3C(=O)c2ccc(F)cc2)c1OCC,inactive: 89%
5,COc1ccc(NC(=O)CSC2=Nc3ccccc3C3=NC(CC(=O)NCc4ccco4)C(=O)N23)cc1 (configuration not stated),inactive: 69%
6,Cc1nc2c(cnn2-c2ccccc2)c(=O)n1-c1ccccc1,inactive: 73%
7,O=C(Cn1c(-c2cccs2)cc2ccccc21)N1CCN(c2ccccc2F)CC1,inactive: 90%
8,O=C(CSc1nnc(-c2ccncc2)n1-c1ccccc1)Nc1ccc(Cl)c(Cl)c1,inactive: 99%
9,Cc1cc(C)nc(N(C#N)CC(=O)c2ccccc2)n1,inactive: 114%
10,Clc1ccc(CCNc2nc3ccccc3c3nc(-c4ccccc4)nn23)cc1,active: 29%
11,CCN(C(=O)CSc1nnc(-c2cc(OC)c(OC)c(OC)c2)o1)c1ccccc1,inactive: 84%
12,CCc1ccc(Nc2nc(C)cc(C)c2C(N)=O)cc1,inactive: 83%
13,Cc1ccccc1CNC(=O)c1cccc(NC(=O)N2CCSc3ncccc32)c1,inactive: 120%
14,CCOC(=O)c1c(S(=O)(=O)N2CCCC(C(=O)Nc3cccc(C#N)c3)C2)c(C)n(C)c1C (configuration not stated),inactive: 67%
15,CC(Oc1ccccc1)C(=O)Nc1ccc(OCc2cc(=O)n3ccsc3n2)cc1 (configuration not stated),inactive: 76%
16,OC(CNc1ccccn1)COc1ccc(OCC(O)CNc2ccccn2)cc1 (configuration not stated),inactive: 79%
17,Cc1ccc(Cl)cc1NC(=O)C1CCCN(S(=O)(=O)c2cccc3cccnc23)C1 (configuration not stated),inactive: 62%
18,COc1ccccc1CNC(=O)CSc1nc2nc(C)c(Cc3ccccc3Cl)c(C)n2n1,active: 46%
19,COc1ccc(C(=O)NCCN=C2NS(=O)(=O)c3ccccc32)cc1,inactive: 93%

row,SMILES,survival
1,COc1ccc(N2C(=O)CS(=O)(=O)C23C(=O)N(Cc2ccc(F)cc2)c2ccc(C)cc23)cc1 (configuration not stated),inactive: 71%
2,CCC(=O)N1CCc2cc(Br)cc(S(=O)(=O)N3CCCC(C(=O)Nc4cccc(C)c4C)C3)c21 (configuration not stated),inactive: 95%
3,CC(CNC(=O)CN1C(=O)COc2ccc(S(=O)(=O)N3CCCCCC3)cc21)c1ccccc1 (configuration not stated),inactive: 73%
4,COc1ccc(CCNC(=O)c2cccc(-n3cnc4cccnc43)c2C)cc1OC,inactive: 99%
5,Cc1cc(C)c2c(=O)[nH]c(SCC(=O)NCCc3ccccc3)nc2n1,inactive: 61%
6,CCCCNC(=O)c1nn(-c2ccc(C)cc2)c(=O)n(C)c1=O,inactive: 78%
7,COc1ccc(-c2nc3cc(C)ccn3c2NC(=O)c2ccc(F)cc2)cc1,active: 37%
8,CCn1c(SCC(=O)Nc2ccc(OC)cc2)nnc1C1CC1,inactive: 91%
9,Cc1cc2c(cc1S(=O)(=O)N(C)CC(=O)Nc1ccc(C#N)cc1)OCC(=O)N2,inactive: 76%
10,NS(=O)(=O)c1ccc(CCNC(=O)c2ccc3nc(CCc4ccccc4)oc3c2)cc1,inactive: 89%
11,Cc1cccc(C)c1NCc1nnc(SCC(N)=O)n1-c1ccccc1,inactive: 80%
12,CCOC(=O)c1c(S(=O)(=O)NCC(=O)Nc2ccc(C)c(N(C)C)c2)c(C)n(C)c1C,inactive: 79%
13,Cn1c(=O)c2c(SCC(=O)NCc3ccco3)nc(-c3cccc(F)c3)nc2n(C)c1=O,inactive: 78%
14,CCOc1ccc(CC(=O)Nc2c(C(=O)Nc3ccc(OC)cc3OC)oc3ccccc23)cc1,inactive: 79%
15,Cc1ccc(S(=O)(=O)c2cn(CC(=O)Nc3ccccc3C)c3cc4c(cc3c2=O)OCO4)cc1,inactive: 60%
16,Cc1ccc(C(=O)N2Cc3ccccc3CC2C(=O)O)cc1 (configuration not stated),inactive: 93%
17,CCOC(=O)C1CCC(CN(Cc2ccc(Cl)cc2)S(=O)(=O)c2cc(Cl)cc(Cl)c2)CC1 (configuration not stated),inactive: 72%
18,Cc1cccc(N2CCN(C(=O)C3CCCN(S(=O)(=O)c4ccc(Br)s4)C3)CC2)c1C (configuration not stated),inactive: 83%
19,Cc1ccc2scc(N3CCC(C)CC3)c(=O)c2c1,inactive: 104%
